The source gives no read counts; variants with many changes may rest on few reads.
B1: OR4K15 (parent)
chain: GUUAACGGUCAUAGGCCAUGGAAACUAGGAGCACCAUUUCGCUGCCAGUGAAGAAAUGAACAAAGAAAAUCUGGGCCAGGCAGGCAUCAAAAGAAAUAGUCUUGCGCUCAACCAGAAAGUCUGUAAUCAUUUUAAGGGUA

Variants of: B1
Experiment: self-cleavage, relative activity (ratio to wild type); higher = more cleavage; in vitro, sequencing; the parent is a self-cleaving ribozyme

| Variant | self-cleavage |
| --- | --- |
| A18U U87C A96U | 1.12 |
| U49C U120G A126U | 0.9 |
| A13G A18G A52U A69G | 0.44 |
| U38C U43C A69G A96U A116G | 0.83 |
| A18G A68G U132C U139C | 1.55 |
| U19A A24G G137U | 1.3 |
| U2C A11G A51G A117G | 1.07 |
| A63G A91G G123U | 1.07 |
| A47U A111U U127C | 0.03 |
| U9C A23G A66U A94G U102A A135G | 0.33 |
| U39C A67U A92U A96G U132A | 2.81 |
| A5G A24G U49C U70C U130C | 0.18 |
| G1A U57A A86G A117G | 1.18 |
| A23G A54U A94U | 0.7 |
| A91U A96G A117G | 2.86 |
| A54G A78U U131C | 0.08 |
| U2C A36G A69G | 0.64 |
| U39A A78C U124C | 0.07 |
| A62G U72C A78C A94G | 0.19 |
| A11G A24G A55G U72A C81U U103C A114U | 0.17 |
| A24U U43C A63C A78G A114U | 0.05 |

| Variant | self-cleavage |
| --- | --- |
| A69G A82U A98U A118G | 0.03 |
| A23G U38C A54G A126U | 0.63 |
| A52C A54G A118G | 0.89 |
| A18U A51G G58A A68G A118U U131G | 0.37 |
| U38C A54U A98G A110G | 0.05 |
| A56G A60G A62G A64G A69G A82U A96G | 0.19 |
| A69G A78G A125G | 0.11 |
| A5U U57C U133A | 0.69 |
| A56U G79A A92G U102C | 0.1 |
| A11G A86U A96U | 2.09 |
| A62G A118C U132C | 0.07 |
| U12C U19C A94G | 1.37 |
| A111G A118G U120C | 0.01 |
| A33U U39A A126C | 0.66 |
| A33U A96G A111G | 0.04 |
| U38C C107U U139G A140U | 0.02 |
| A60G A90G U120C | 0.87 |
| A60G C85U G119A | 1.06 |
| A24G A30G U124C U127C | 0.69 |
| G84A A86G A91G U102A A117G | 0.75 |
| U87C A92G A116G | 0.54 |

| Variant | self-cleavage |
| --- | --- |
| A23G U49C G79A | 0.21 |
| A56G A62G A89U | 1.59 |
| A22G U103C U122C U124C | 0.78 |
| U39C A59G U87C | 0.14 |
| A78G A96G A110G A117G | 0.02 |
| A27G A64G U70C U103C | 0.61 |
| A51G A66G A110G | 0.21 |
| A18U U57C A64G | 1.75 |
| A18U A82G U131C | 0.17 |
| A47U C109A U130C | 0.14 |
| G7A A82G U87G U122C | 0.14 |
| U70C A90G U97C | 0.47 |
| A54G A116G U127C A135U | 0.76 |
| U3C U43A A55G | 1 |
| A52G A60G U87C U122A | 0.58 |
| A18U A54G U103C | 0.45 |
| A24G C46U A60G G138U | 1.71 |
| A22G U70C U87C U130C | 0.04 |
| U37C A51G A86G A92G | 0.96 |
| A11G A33G A54G A94G U100C A117C | 2.79 |
| G79U A110G A114G U132C | 0 |

| Variant | self-cleavage |
| --- | --- |
| A24G A66G A69U | 1.31 |
| U9A A47G A60U A92G A94G C101U A114G | 0.09 |
| A24U A78G A110C U130C | 0.08 |
| U43C U103C A114G | 0.25 |
| U57C A90G A111U A116U | 0 |
| U39C A78G A129U | 0.14 |
| U43C A116G A126G U127C | 0.1 |
| A24C A30U A47U C128U A129C | 0.5 |
| A51G A67G A95C | 0.85 |
| A30C U72G A90G | 0.36 |
| A67G U108C A111G U133C | 0 |
| U43C A68G A86U | 1.86 |
| U2G A55U A63C A67G A78G A117G | 0.34 |
| U19A A60G C76U U102C A110G | 0.06 |
| A5G A67G U72C U122C | 0.28 |
| U9C U12C A56G A86G A140G | 0.69 |
| U19C A23G A24G U122C | 0.47 |
| A33C A56G A62U A92U U103C | 0.92 |
| A22G U57C A94G A118U | 0.11 |
| A59G A78G U131C | 0.13 |
